# This is one part of the list. The exact form of the protein is not confirmed.
# Target: GST-SBP-ILF3 (Homo sapiens) (UniProt Q12906)
# Assay: targeted RNA Bind-n-Seq
# Details: RBNS binding buffer: 25 mM Tris pH 7.5, 150 mM KCl, 3 mM MgCl2, 0.1% Tween, 0.5 mg/mL BSA, 1 mM DTT; 27 nM protein, 750 pM RNA pool; temperature not stated; high values mean tight binding; sequences stand for … in GGGUAAAAGCGAGGUGAA…CGGGACAAGUAUUAUGGG
row,Sequence,binding signal (log2 fold change)
1,GGUGUUGGUGUUGGACCCUAACACCAGCGC [gtspaired],-0.656
2,GUUGUGUGUGUUGGUGCCUAACACACGCGA [gtspaired],-0.792
3,GUGUGGUGUGUUGGUACCUAACACACUAUA [gtspaired],-0.366
4,GUGGUUGGUGUUGGCAUCUAACACCGAUCA [gtspaired],-0.698
5,UUUUUUUUUUGAGACGGAGGCCGUUUCCUA [tttttgagapaired],0.475
6,UUUUUUUUUUGAGAGCGAAACGCUCUCCUA [tttttgagapaired],-0.00885
7,UUUUUUUUUUGAGAUCGGGGCGAUCUCCAG [tttttgagapaired],0.234
8,UUUUUUUUUUGAGAGGGAUGCCCUCUUCUA [tttttgagapaired],0.438
9,UUUUUUUUUUGAGAUGGGGACUAUCUCCGG [tttttgagapaired],0.603
10,UUUUUUUUUUGAGACUGUGUCAGUUUCCUG [tttttgagapaired],1.03
11,UUUUUUUUUUGAGACUGGGUCAGUUUCCUG [tttttgagapaired],0.959
12,UUCCUCUCUCCUCCGUCGGAGGGGGGAGGA [ctspaired],-0.647
13,GGUGUGUGUGUUGGUGUCUAACACAUAUAC [gtspaired],-0.826
14,UUUUUUUUUUGAGACUGUAGCAGUCUCCUG [tttttgagapaired],0.71
15,UUUUUUUUUUGAGAGCGUACCGUUCUCCUA [tttttgagapaired],0.274
16,UUUUUUUUUUGAGAUCGGAGCGAUCUUCUA [tttttgagapaired],0.317
17,GUUGGUGGUGUUGGCACCUAACACCACCAG [gtspaired],0.0729
18,UUUUUUUUUUGAGACCGCAUCGGUCUCCAG [tttttgagapaired],0.25
19,UUUUUUUUUUGAGACUGGAGCAGUCUUCUA [tttttgagapaired],0.565
20,UUUUUUUUUUGAGACCGUGGCGGUCUCCAG [tttttgagapaired],0.42
21,UUCUCUUCUCCUCCGCUGGAGGGGAAGGGA [ctspaired],-1.33
22,GUGUGGUGUGUUGGCCCCUAACACAUCACG [gtspaired],-0.231

row,Sequence,binding signal (log2 fold change)
1,GUUGUGUGUGUUGGUGCCUAACACACGCAA [gtspaired],-0.0854
2,UUUUUUUUUUGAGAGGGGCUCCCUCUCCAG [tttttgagapaired],0.643
3,UUUUUUUUUUGAGAGUGAUGCACUCUCCUA [tttttgagapaired],0.0131
4,GGUGGUGGUGUUGGAGUCUAACACCAUCGC [gtspaired],-0.59
5,GGUUGUGGUGUUGGUCUCUAACACCGCAGC [gtspaired],-0.631
6,UUUUUUUUUUGAGAGCGUAACGUUCUCCUG [tttttgagapaired],0.471
7,UUUUUUUUUUGAGACCGCUACGGUCUCCAG [tttttgagapaired],0.271
8,UUUUUUUUUUGAGACGGAUUCCGUUUCCAG [tttttgagapaired],0.56
9,GUGUGUUGUGUUGGCGCCUAACACAGCACA [gtspaired],-0.214
10,GGUGGUUGUGUUGGUGCCUAACACAGCCGC [gtspaired],-0.587
11,UUUUUUUUUUGAGAAGGACCCCUUCUCCAG [tttttgagapaired],0.247
12,UUCUCUCUUCCUCCGCUGGAGGAGGGGAGA [ctspaired],-0.309
13,UUUUUUUUUUGAGAGGGUCUCCCUUUCCAG [tttttgagapaired],0.362
14,UUUUUUUUUUGAGACGGUUGCCGUCUCCGG [tttttgagapaired],0.508
15,GUUGUGUGUGUUGGAACCUAACACACACAG [gtspaired],-0.716
16,GUGGUUGGUGUUGGACUCUAACACCGACCG [gtspaired],-0.38
17,UUUUUUUUUUGAGACGGACGCUGUCUCCUA [tttttgagapaired],0.859
18,UUUUUUUUUUGAGACUGCUACAGUCUUCUA [tttttgagapaired],0.247
19,UUUUUUUUUUGAGAGGGAAUCCCUCUUCUG [tttttgagapaired],0.105
20,UUUUUUUUUUGAGACGGCAACCGUCUUCUG [tttttgagapaired],0.482
21,UUUUUUUUUUGAGAUGGCGUCCAUCUUCUG [tttttgagapaired],0.803
22,UUUUUUUUUUGAGAUCGACGCGAUCUCCGG [tttttgagapaired],0.539

row,Sequence,binding signal (log2 fold change)
1,GUGUGUUGUGUUGGUUCCUAACACAGCGCG [gtspaired],-0.563
2,UUUUUUUUUUGAGACCGAAUCGGUCUCCUG [tttttgagapaired],0.527
3,GUGGUUGGUGUUGGAGUCUAACACCGACUA [gtspaired],-0.36
4,UUUUUUUUUUGAGAUGGCAGCCAUCUUCUG [tttttgagapaired],0.646
5,GGUUGGUGUGUUGGCACCUAACACAUCAGC [gtspaired],-0.625
6,UUUUUUUUUUGAGAGCGUGGCGCUCUCCAG [tttttgagapaired],0.118
7,UUUUUUUUUUGAGAGGGUAACCCUCUCCGG [tttttgagapaired],0.188
8,UUUUUUUUUUGAGAGCGGAACGUUCUCCUA [tttttgagapaired],-0.114
9,GUGGUGUGUGUUGGUGCCUAACACACAUCG [gtspaired],-0.82
10,UUUUUUUUUUGAGAACGAUACGUUCUUCUA [tttttgagapaired],-0.0494
11,GGUGGUGGUGUUGGCCCCUAACACCGCCGC [gtspaired],0.0413
12,UUUUUUUUUUGAGACUGAGGCAGUCUCCGG [tttttgagapaired],0.441
13,UUUUUUUUUUGAGACGGCCGCCGUCUCCUG [tttttgagapaired],1.01
14,UUUUUUUUUUGAGACCGUAGCGGUCUCCGG [tttttgagapaired],0.832
15,GUUGGUGGUGUUGGACCCUAACACCAUCAA [gtspaired],-0.423
16,UUUUUUUUUUGAGACUGAGUCAGUUUCCUA [tttttgagapaired],0.366
17,UUUUUUUUUUGAGAUGGGCACUAUCUCCGG [tttttgagapaired],0.467
18,UUUUUUUUUUGAGACUGAUUCAGUCUCCAG [tttttgagapaired],0.0135
19,UUUUUUUUUUGAGACUGGAUCAGUCUCCUA [tttttgagapaired],0.363
20,GUGUGGUGUGUUGGUACCUAACACAUCACG [gtspaired],-0.619
21,UUUUUUUUUUGAGAUGGGCCCCAUCUCCAG [tttttgagapaired],0.93
22,UUUUUUUUUUGAGAGGGUAGCCCUCUCCUA [tttttgagapaired],0.622

# Source: paper PMC5892938
